Experimental data taken from PubChem BioAssay AID1030 (National Center for Advancing Translational Sciences (NCATS), 2008).
Hit rate of the full screen: of about 220,000 compounds, about 16,000 (7.3%) were called active. Inconclusive means that the source gave no clear call. Such entries were picked first, then a sample of the others. Calls come from the whole dose curve; as a rule, active = well fitted inhibition curve with a large enough effect (not every such curve was filed as active); inconclusive = small, poorly fitted or top-dose-only effect, or another doubt; inactive = no such curve, though single readings can be large or run the other way. No potency is given beside an inconclusive call; the fits are too rough.

The molecules below were run against Aldehyde dehydrogenase 1A1 (Homo sapiens) (UniProt P00352) (assay: qHTS Assay for Inhibitors of Aldehyde Dehydrogenase 1 (ALDH1A1)). Conditions: Purified ALDH1A1, NADH fluorescence, propionaldehyde substrate; series mostly up to 75.3 µM; activity, negative = inhibition: at the top concentration.
UniProt P00352, sequence (P00352 whole entry, looked up): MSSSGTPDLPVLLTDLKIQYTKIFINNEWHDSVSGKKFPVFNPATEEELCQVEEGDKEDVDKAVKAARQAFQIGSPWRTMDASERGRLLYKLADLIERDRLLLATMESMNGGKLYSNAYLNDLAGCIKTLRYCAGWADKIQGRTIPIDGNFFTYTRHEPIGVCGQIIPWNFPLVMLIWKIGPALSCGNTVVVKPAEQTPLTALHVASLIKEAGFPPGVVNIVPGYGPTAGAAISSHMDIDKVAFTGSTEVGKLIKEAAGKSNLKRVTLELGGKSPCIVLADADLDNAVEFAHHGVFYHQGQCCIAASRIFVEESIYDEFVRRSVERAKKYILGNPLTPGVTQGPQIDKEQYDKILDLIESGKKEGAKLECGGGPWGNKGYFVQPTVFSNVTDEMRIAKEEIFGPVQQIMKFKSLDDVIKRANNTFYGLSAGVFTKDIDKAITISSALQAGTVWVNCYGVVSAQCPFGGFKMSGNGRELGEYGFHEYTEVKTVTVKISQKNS
Potency is the fitted concentration of half-maximal effect; tags give direction and shape of the fitted curve.
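Throughout, for activity, negative = inhibition: plate controls were no enzyme wells and a reference inhibitor.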

Row | Structure (SMILES) | activity, negative = inhibition | Potency
1 | COC(=O)c1cn(CC(=O)N2CCCCCC2)c2ccccc12 | inactive: 10.2% | –
2 | CCOC(=O)N1CCC2(CC1)C(C(=O)C13CC4CC(CC(C4)C1)C3)C2(C#N)C#N (centres undefined) | – | inconclusive [inhibitor, single point]
3 | Cc1cccc(Nc2ncc3c(n2)CC(c2ccco2)CC3=O)c1 (centres undefined) | – | inconclusive [inhibitor, partial curve, poor fit]
4 | CC(=O)O[C@H]1C2=CO[C@H](C)[C@H]3[C@H]4C5=C([C@H](O)[C@H]6O[C@@H]6C5=O)[C@H](O[C@H]4C)[C@@]23C(=O)[C@H]2O[C@@H]21 | inactive: 5.82% [at 13.5 µM] | –
5 | Cc1ccc(SCCNC(=O)c2ccccc2C)cc1 | inactive: 4.7% | –
6 | CCCc1cc(=O)oc2cc3oc(C)c(C)c3cc12 | – | inconclusive [inhibitor, single point]
7 | COc1cc2c(cc1N/C=C(\C#N)c1nc(-c3ccccc3)cs1)oc1ccccc12 | inactive: 3.62% | –
8 | N#C/C(=C\c1cccnc1)c1nc2ccccc2[nH]1 | – | inconclusive [inhibitor, partial curve]
9 | CC(C)=CCOc1cc2oc(=O)ccc2cc1O | – | inconclusive [inhibitor, partial curve]
10 | CCn1cc(Br)c(C(=O)NN)n1 | – | active: 25.1 µM
11 | CC(C)(C)c1ccc(C(=O)NCCCN2CCN(CCCNC(=O)c3ccc(C(C)(C)C)cc3)CC2)cc1 | – | inconclusive [inhibitor, single point]
12 | O=C1NC(=S)S/C1=C/c1ccc(Oc2cnccn2)cc1 | – | inconclusive [inhibitor, single point]
13 | O=C(NCc1ccccc1Cl)c1ccc2nnsc2c1 | – | inconclusive [inhibitor, single point]
14 | C=CCC1C=C(Cc2ccccc2)CC(CC=C)N1 (centres undefined) | – | inconclusive [inhibitor, single point]
15 | Cn1nc(C(=O)Nc2ccc(S(=O)(=O)N3CCCCC3)cc2)c2ccccc2c1=O | – | inconclusive [inhibitor, single point]
16 | O=C(O)c1nc(N2CCOCC2)nc(N2CCOCC2)n1 | inactive: 2.75% | –
17 | CC(=O)OCC1OC(C#CCCCc2ccccc2)C=CC1OC(C)=O (centres undefined) | – | inconclusive [inhibitor, partial curve]
18 | CC(=O)Nc1nc2c(c3c1c(=O)oc1ccccc13)CC(C)CC2 (centres undefined) | – | inconclusive [inhibitor, full curve]
19 | CCc1ccc(NC(=O)C(=O)N/N=C(\C)CC(=O)NCc2ccc(Cl)cc2)cc1 | – | inconclusive [inhibitor, single point]
